This list was built around the results that the source calls inconclusive (neither active nor inactive); the mix of calls is not that of the screen. A potency beside an inconclusive call is a rough fit, not a confirmed value. The source made the active and inactive calls. Calls follow the shape of the dose curve; as a rule, active = well fitted inhibition curve with a large enough effect; inconclusive = small, poorly fitted or top-dose-only effect; inactive = no such curve, though single readings can be large or run the other way.
biological target: Cytochrome P450 2C9 (Homo sapiens) (UniProt P11712); test: qHTS Assay for Inhibitors and Substrates of Cytochrome P450 2C9 (AID 883); settings: recombinant CYP2C9, luciferin-H luminescence, 60 min; activity change, negative = inhibition: at 11.4 µM (top of the series) unless noted; also: nearly all actives have a fitted effect of over 60% in size
Chain of UniProt P11712 (P11712 whole entry, looked up): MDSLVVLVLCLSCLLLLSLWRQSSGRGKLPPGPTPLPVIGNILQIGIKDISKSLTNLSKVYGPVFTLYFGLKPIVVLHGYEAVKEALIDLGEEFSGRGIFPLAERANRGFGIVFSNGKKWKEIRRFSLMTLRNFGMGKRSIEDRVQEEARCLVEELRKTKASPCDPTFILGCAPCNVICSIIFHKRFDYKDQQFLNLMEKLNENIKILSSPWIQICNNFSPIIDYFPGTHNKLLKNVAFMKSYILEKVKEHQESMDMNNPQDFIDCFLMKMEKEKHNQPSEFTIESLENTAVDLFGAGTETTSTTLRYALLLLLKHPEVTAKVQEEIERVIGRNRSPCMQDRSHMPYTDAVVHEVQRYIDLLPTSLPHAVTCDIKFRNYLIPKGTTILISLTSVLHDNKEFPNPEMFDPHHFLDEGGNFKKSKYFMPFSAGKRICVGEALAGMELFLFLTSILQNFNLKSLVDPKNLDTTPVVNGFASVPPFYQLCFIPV
How it was run: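 Human CYP2C9 (10nM) with Luciferin-H at 100uM (its KM) in 25mM KPO4; compound preincubated 10 min at 37C, then NADPH regeneration for 60 min at 37C. Luciferin read by luminescence after detection reagent; normalized to 57uM sulphaphenazole as full inhibition.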
% is scaled to controls: 0 for no effect and ±100 for the full control effect; potency is read from the fitted curve at half-maximal effect; tags tell the direction and shape of the fitted curve.

SMILES	Potency	activity change, negative = inhibition
COc1ccc2c(c1)Cc1cc(N=[N+]([O-])c3ccc4c(c3)Cc3cc(OC)ccc3-4)ccc1-2	inconclusive: 1.58 µM [inhibitor, partial curve, poor fit]	
CC(C)(C)CC(C)(C)c1cc(O)c(O)c(CN2CCCCC2)c1	inconclusive: 7.94 µM [inhibitor, single point]	
Oc1c(CN2CCOCC2)ccc(CN2CCOCC2)c1O	inconclusive: 7.94 µM [inhibitor, single point]	
COc1ccc(CSC2=C(C#N)C(=O)NC3(CCCCC3)S2)cc1	inconclusive: 3.16 µM [inhibitor, single point]	
CCOP(=O)(CC(C(C)=O)C(O)c1ccccc1)OCC (configuration not stated)		inactive: 23.9%
CC1(C)OC(C(O)(c2cc(F)c(F)c(F)c2)c2cc(F)c(F)c(F)c2)C(C(O)(c2cc(F)c(F)c(F)c2)c2cc(F)c(F)c(F)c2)O1 (configuration not stated)		inactive: -5.61%
C=C(C)C(O)/C=C/CCCCCCC (configuration not stated)		inactive: 29.2%
COC(=O)[C@@H]1CC[C@H](C)[C@@H](c2ccc(C)cc2)N1C(=O)c1ccc(/C=N\O[C@@H]2O[C@H](COC(C)=O)[C@H](OC(C)=O)[C@H](OC(C)=O)[C@H]2OC(C)=O)cc1	inconclusive: 1.58 µM [inhibitor, full curve, poor fit]	
CC1(O)C(=O)C=C2C=C3CCCN3C=C2C1=O (configuration not stated)		inactive: 3.99%
COC(=O)CC1=COC(O)C2C(CO)=CC[C@@H]12 (some centres not stated)		inactive: 15.5%
N#C/C(=C(\O)C(=O)O)c1ccc(-c2cccc3ccccc23)cc1	inconclusive: 3.16 µM [inhibitor, single point]	
COc1ccc(/C=C/NC(=O)Cc2ccc(OC)c(OC)c2)cc1	inactive	

Reference: PubChem BioAssay (NCATS)
